# Laboratory results taken from the supplement of paper PMC8728848.
# The list shows a part of the results.
# Legend:
# Experiment in all cases: glycan array binding signal (z-score within array); higher = stronger binding
# Conditions in all cases: glycan notation: IUPAC condensed, linker removed
# Fuc(a1-2)Gal = target: Fuc(a1-2)Gal
# In short: (§1)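 Glycan array data came from 3228 arrays in the Consortium for Functional Glycomics database, and only arrays with an available protein sequence were kept. Glycan names were put into IUPAC-condensed notation, and columns mapping to the same glycan were averaged. The binding signal is a within-array Z-score, averaged across arrays of one protein sequence run at different concentrations or buffers and across linkers. A negative Z-score can be read as non-binding.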
# Fuc(a1-2)Gal(b1-3)GalNAc = target: Fuc(a1-2)Gal(b1-3)GalNAc
# In short: as §1
# [1] = target: Fuc(a1-2)Gal(b1-3)GalNAc(a1-3)[Fuc(a1-2)]Gal(b1-4)Glc
# In short: as §1
# [2] = target: Fuc(a1-2)Gal(b1-3)GalNAc(a1-3)[Fuc(a1-2)]Gal(b1-4)GlcNAc
# In short: as §1
# [3] = target: Fuc(a1-2)Gal(b1-3)GalNAc(b1-3)Gal
# In short: as §1
# [4] = target: Fuc(a1-2)Gal(b1-3)GalNAc(b1-3)Gal(a1-4)Gal(b1-4)Glc
# In short: as §1
# [5] = target: Fuc(a1-2)Gal(b1-3)GalNAc(b1-4)[Neu5Ac(a2-3)]Gal(b1-4)Glc
# In short: as §1
# Fuc(a1-2)Gal(b1-3)GlcNAc = target: Fuc(a1-2)Gal(b1-3)GlcNAc
# In short: as §1
# [6] = target: Fuc(a1-2)Gal(b1-3)GlcNAc(b1-2)Man(a1-3)[Fuc(a1-2)Gal(b1-3)GlcNAc(b1-2)Man(a1-6)]Man(b1-4)GlcNAc(b1-4)GlcNAc
# In short: as §1
# [7] = target: Fuc(a1-2)Gal(b1-3)GlcNAc(b1-2)Man(a1-3)[Fuc(a1-2)Gal(b1-3)GlcNAc(b1-2)Man(a1-6)]Man(b1-4)GlcNAc(b1-4)[Fuc(a1-6)]GlcNAc
# In short: as §1
# [8] = target: Fuc(a1-2)Gal(b1-3)GlcNAc(b1-3)Gal(b1-4)Glc
# In short: as §1
# [9] = target: Fuc(a1-2)Gal(b1-3)GlcNAc(b1-3)GalNAc
# In short: as §1
# [10] = target: Fuc(a1-2)Gal(b1-3)GlcNAc(b1-3)[Fuc(a1-2)Gal(b1-3)GlcNAc(b1-6)]GalNAc
# In short: as §1
# [11] = target: Fuc(a1-2)Gal(b1-3)GlcNAc(b1-3)[Gal(b1-4)GlcNAc(b1-6)]Gal(b1-4)Glc
# In short: as §1
# [12] = target: Fuc(a1-2)Gal(b1-3)GlcNAc(b1-3)[Neu5Ac(a2-6)Gal(b1-4)GlcNAc(b1-6)]Gal(b1-4)Glc
# In short: as §1
# [13] = target: Fuc(a1-2)Gal(b1-3)GlcNAc6S
# In short: as §1
# [14] = target: Fuc(a1-2)Gal(b1-3)[Fuc(a1-4)]GlcNAc
# In short: as §1
# [15] = target: Fuc(a1-2)Gal(b1-3)[Fuc(a1-4)]GlcNAc(b1-2)Man(a1-3)[Fuc(a1-2)Gal(b1-3)[Fuc(a1-4)]GlcNAc(b1-2)Man(a1-3)]Man(b1-4)GlcNAc(b1-4)GlcNAc
# In short: as §1
# [16] = target: Fuc(a1-2)Gal(b1-3)[Fuc(a1-4)]GlcNAc(b1-2)Man(a1-3)[Fuc(a1-2)Gal(b1-3)[Fuc(a1-4)]GlcNAc(b1-2)Man(a1-6)]Man(b1-4)GlcNAc(b1-4)[Fuc(a1-6)]GlcNAc(b1-4)[Fuc(a1-6)]GlcNAc
# In short: as §1
# [17] = target: Fuc(a1-2)Gal(b1-3)[Fuc(a1-4)]GlcNAc(b1-3)[Fuc(a1-3)[Gal(b1-4)]GlcNAc(b1-6)]Gal(b1-4)Glc
# In short: as §1
# [18] = target: Fuc(a1-2)Gal(b1-3)[Fuc(a1-4)]GlcNAc(b1-3)[Gal(b1-4)GlcNAc(b1-6)]Gal(b1-4)Glc
# In short: as §1
# Fuc(a1-2)Gal(b1-4)Glc = target: Fuc(a1-2)Gal(b1-4)Glc
# In short: as §1
# Fuc(a1-2)Gal(b1-4)Glc6S = target: Fuc(a1-2)Gal(b1-4)Glc6S
# In short: as §1
# Fuc(a1-2)Gal(b1-4)GlcNAc = target: Fuc(a1-2)Gal(b1-4)GlcNAc
# In short: as §1
# [19] = target: Fuc(a1-2)Gal(b1-4)GlcNAc(b1-2)Man
# In short: as §1
# [20] = target: Fuc(a1-2)Gal(b1-4)GlcNAc(b1-2)Man(a1-3)[Fuc(a1-2)Gal(b1-4)GlcNAc(b1-2)Man(a1-6)]Man(b1-4)GlcNAc(b1-4)GlcNAc
# In short: as §1
# [21] = target: Fuc(a1-2)Gal(b1-4)GlcNAc(b1-2)Man(a1-3)[Fuc(a1-2)Gal(b1-4)GlcNAc(b1-2)Man(a1-6)]Man(b1-4)GlcNAc(b1-4)[Fuc(a1-6)]GlcNAc
# In short: as §1
# [22] = target: Fuc(a1-2)Gal(b1-4)GlcNAc(b1-2)[Fuc(a1-2)Gal(b1-4)GlcNAc(b1-4)]Man(a1-3)[Fuc(a1-2)Gal(b1-4)GlcNAc(b1-2)Man(a1-6)]Man(b1-4)GlcNAc(b1-4)GlcNAc
# In short: as §1
# [23] = target: Fuc(a1-2)Gal(b1-4)GlcNAc(b1-3)Gal(b1-4)GlcNAc
# In short: as §1
# [24] = target: Fuc(a1-2)Gal(b1-4)GlcNAc(b1-3)Gal(b1-4)GlcNAc(b1-2)Man(a1-3)[Fuc(a1-2)Gal(b1-4)GlcNAc(b1-3)Gal(b1-4)GlcNAc(b1-2)Man(a1-6)]Man(b1-4)GlcNAc(b1-4)GlcNAc
# In short: as §1
binder,measurement,setting,value
B725 (Bifidobacterium sp) (protein) MNNTTRAVIATAAIGALLIPLAGCGNTTTSSGKTELTVWSWDASIDRAAKSFMKANPDITVKVSNVGSTEETYTALNNAAQAGSGLPDVTLIEYLAIPQFVHSDTLMDLSKVYNTAKLKDTFTPGTWNSVNINGGLYAMPADSGPMAYFYDKDVFDKAGISEPPTTWDEFYEDAKKIRATGSYITSDSGDAGLFNAMMWAMGGHAYKLNDDKLTINIAKDKGAQRFMDLWQKMRDEDLIDVHTKTWTDDWMKSLGDGSIASLISGAWMANNLLQGVPQATGKFRVALLPTIDGTPINGEYGGSGLAITKKIPDGKLDAAKKFVEYVTTNDEGIDARVSNGSFPATTKTLNQKDFLAKTTLRNTDGSDNEFFGGQKYNEIFSQAAKDVTGKWEFLPFEPYARSVYNDNMGSFFAGKTSFRTAADNWQKALKDYAKDQGFTVQ,glycan array binding signal (z-score),Fuc(a1-2)Gal,-0.221
same,glycan array binding signal (z-score),Fuc(a1-2)Gal(b1-3)GalNAc,-0.216
same,glycan array binding signal (z-score),[1],-0.208
same,glycan array binding signal (z-score),[2],-0.229
same,glycan array binding signal (z-score),[3],-0.205
same,glycan array binding signal (z-score),[4],-0.214
same,glycan array binding signal (z-score),[5],-0.211
same,glycan array binding signal (z-score),Fuc(a1-2)Gal(b1-3)GlcNAc,-0.292
same,glycan array binding signal (z-score),[6],-0.208
same,glycan array binding signal (z-score),[7],-0.181
same,glycan array binding signal (z-score),[8],-0.176
same,glycan array binding signal (z-score),[9],-0.203
same,glycan array binding signal (z-score),[10],-0.215
same,glycan array binding signal (z-score),[11],-0.206
same,glycan array binding signal (z-score),[12],-0.219
same,glycan array binding signal (z-score),[13],-0.234
same,glycan array binding signal (z-score),[14],-0.215
same,glycan array binding signal (z-score),[15],-0.202
same,glycan array binding signal (z-score),[16],-0.192
same,glycan array binding signal (z-score),[17],-0.216
same,glycan array binding signal (z-score),[18],-0.2
same,glycan array binding signal (z-score),Fuc(a1-2)Gal(b1-4)Glc,-0.225
same,glycan array binding signal (z-score),Fuc(a1-2)Gal(b1-4)Glc6S,-0.2
same,glycan array binding signal (z-score),Fuc(a1-2)Gal(b1-4)GlcNAc,-0.225
same,glycan array binding signal (z-score),[19],-0.229
same,glycan array binding signal (z-score),[20],-0.187
same,glycan array binding signal (z-score),[21],-0.198
same,glycan array binding signal (z-score),[22],-0.192
same,glycan array binding signal (z-score),[23],-0.159
same,glycan array binding signal (z-score),[24],-0.162
